This is an account of results in patent US20120237496.

For orientation: kcat/KM means the turnover number divided by the Michaelis constant.

Data set [1] has as its target A-beta 1-40 (fluorescein/Lys-biotin labelled synthetic peptide).
In data set [2] the target is T1, ANP (fluorescein/Lys-biotin labelled synthetic peptide).
T1 chain: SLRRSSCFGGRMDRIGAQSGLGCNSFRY

The target of data set [3] is Angiotensin (fluorescein/Lys-biotin labelled synthetic peptide).
The target of data set [4] is Bradykinin (fluorescein/Lys-biotin labelled synthetic peptide).
In data set [5] the target is T2, GIP (fluorescein/Lys-biotin labelled synthetic peptide).
T2 chain: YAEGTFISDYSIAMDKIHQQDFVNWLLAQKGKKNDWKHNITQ

Data set [6] deals with T3, GLP-1 (fluorescein/Lys-biotin labelled synthetic peptide).
T3 chain: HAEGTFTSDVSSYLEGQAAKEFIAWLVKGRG

Data set [7] addresses Glucagon (fluorescein/Lys-biotin labelled synthetic peptide).
For data set [8], the target named is T4, Somatostatin 1-28 (fluorescein/Lys-biotin labelled synthetic peptide).
T4 chain: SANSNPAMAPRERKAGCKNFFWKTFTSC

B1: Wild type Nep (protein)
chain: YDDGICKSSDCIKSAARLIQNMDATTEPCTDFFKYACGGWLKRNVIPETSSRYGNFDILRDELEVVLKDVLQEPKTEDIVAVQKAKALYRSCINESAIDSRGGEPLLKLLPDIYGWPVATENWEQKYGASWTAEKAIAQLNSKYGKKVLINLFVGTDDKNSVNHVIHIDQPRLGLPSRDYYECTGIYKEACTAYVDFMISVARLIRQEERLPIDENQLALEMNKVMELEKEIANATAKPEDRNDPMLLYNKMTLAQIQNNFSLEINGKPFSWLNFTNEIMSTVNISITNEEDVVVYAPEYLTKLKPILTKYSARDLQNLMSWRFIMDLVSSLSRTYKESRNAFRKALYGTTSETATWRRCANYVNGNMENAVGRLYVEAAFAGESKHVVEDLIAQIREVFIQTLDDLTWMDAETKKRAEEKALAIKERIGYPDDIVSNDNKLNNEYLELNYKEDEYFENIIQNLKFSQSKQLKKLREKVDKDEWISGAAVVNAFYSSGRNQIVFPAGILQPPFFSAQQSNSLNYGGIGMVIGHEITHGFDDNGRNFNKDGDLVDWWTQQSASNFKEQSQCMVYQYGNFSWDLAGGQHLNGINTLGENIADNGGLGQAYRAYQNYIKKNGEEKLLPGLDLNHKQLFFLNFAQVWCGTYRPEYAVNSIKTDVHSPGNFRIIGTLQNSAEFSEAFHCRKNSYMNPEKKCRVW
Consider B1, for which the kcat/KM was 13000 M⁻¹ s⁻¹ in data set [1]; 290000 M⁻¹ s⁻¹ in data set [2]; 1.2e+06 M⁻¹ s⁻¹ in data set [3]; 490000 M⁻¹ s⁻¹ in data set [4]; 460 M⁻¹ s⁻¹ in data set [5]; 140000 M⁻¹ s⁻¹ in data set [6]. The kcat/KM in data set [7] was determined as 250000 M⁻¹ s⁻¹; in data set [8], 560000 M⁻¹ s⁻¹.

B2: Nep-G399V/G714K (protein)
chain: YDDGICKSSDCIKSAARLIQNMDATTEPCTDFFKYACGGWLKRNVIPETSSRYGNFDILRDELEVVLKDVLQEPKTEDIVAVQKAKALYRSCINESAIDSRGGEPLLKLLPDIYGWPVATENWEQKYGASWTAEKAIAQLNSKYGKKVLINLFVGTDDKNSVNHVIHIDQPRLGLPSRDYYECTGIYKEACTAYVDFMISVARLIRQEERLPIDENQLALEMNKVMELEKEIANATAKPEDRNDPMLLYNKMTLAQIQNNFSLEINGKPFSWLNFTNEIMSTVNISITNEEDVVVYAPEYLTKLKPILTKYSARDLQNLMSWRFIMDLVSSLSRTYKESRNAFRKALYVTTSETATWRRCANYVNGNMENAVGRLYVEAAFAGESKHVVEDLIAQIREVFIQTLDDLTWMDAETKKRAEEKALAIKERIGYPDDIVSNDNKLNNEYLELNYKEDEYFENIIQNLKFSQSKQLKKLREKVDKDEWISGAAVVNAFYSSGRNQIVFPAGILQPPFFSAQQSNSLNYGGIGMVIGHEITHGFDDNGRNFNKDGDLVDWWTQQSASNFKEQSQCMVYQYGNFSWDLAGGQHLNGINTLGENIADNGGLGQAYRAYQNYIKKNGEEKLLPGLDLNHKQLFFLNFAQVWCGTYRPEYAVNSIKTDVHSPKNFRIIGTLQNSAEFSEAFHCRKNSYMNPEKKCRVW
Consider B2, for which the kcat/KM in data set [1] was found to be 59000 M⁻¹ s⁻¹; in data set [2] it was 26000 M⁻¹ s⁻¹; in data set [3], 16000 M⁻¹ s⁻¹; in data set [4], 150 M⁻¹ s⁻¹; in data set [5] it was 160 M⁻¹ s⁻¹; in data set [6], 38000 M⁻¹ s⁻¹. In addition, the kcat/KM in data set [7] was determined as 100000 M⁻¹ s⁻¹; in data set [8] it was 4100 M⁻¹ s⁻¹. For the same protein, the ratio of kcat/KM, mutant vs wild type in data set [1] is 4.5; in data set [2] it was 0.088; in data set [3] it was 0.014; in data set [4], 0.00031; in data set [5], 0.34; in data set [6], 0.27. Besides, the ratio of kcat/KM, mutant vs wild type in data set [7] is 0.41; in data set [8], 0.0073.
